The supplement of paper PMC9588766
Counter-ions that a name gives are not always drawn. Over roughly 1,900 compounds, “cell viability of compound + 1 nM pemigatinib relative to pemigatinib-only (DMSO) wells” has its median near 0.95; the lowest 2% begin near 0.22. The list shows a part of the results.

The molecules below were run on PDC-DUC18828 (assay: cell viability of compound + 1 nM pemigatinib relative to pemigatinib-only (DMSO) wells (fraction); PDC-DUC18828 is a patient-derived cholangiocarcinoma cell line; higher = less growth inhibition). Conditions: first compound 1 µM; pemigatinib concentration 1 nM; 72 h.
Description: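 Selleck Bioactive library screen in the patient-derived FGFR2 fusion-positive ICC cell line PDC-DUC18828 (500 cells/well). Each compound was tested at 1 uM with 1 nM pemigatinib, in triplicate, for 72 h. Viability was read by CellTiter-Glo and normalised to plate DMSO controls. Value is the paper's averaged normalised viability.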

| SMILES | cell viability |
| --- | --- |
| CC[C@H](CO)Nc1nc(NCc2ccccc2)c2ncn(C(C)C)c2n1 [Roscovitine (Seliciclib,CYC202)] + CCN1C(=O)N(c2c(F)c(OC)cc(OC)c2F)Cc2cnc3[nH]c(CN4CCOCC4)cc3c21 [pemigatinib] | 0.98 |
| CC(C)OC(=O)C1=CN(C(=O)c2ccc(F)c(F)c2)CC(C)(C)c2c1[nH]c1ccccc21 + CCN1C(=O)N(c2c(F)c(OC)cc(OC)c2F)Cc2cnc3[nH]c(CN4CCOCC4)cc3c21 [pemigatinib] | 0.981 |
| CN1CCN(C(c2ccccc2)c2ccccc2)CC1 [Cyclizine 2HCl] + CCN1C(=O)N(c2c(F)c(OC)cc(OC)c2F)Cc2cnc3[nH]c(CN4CCOCC4)cc3c21 [pemigatinib] | 0.971 |
| O=C(/C=C\n1cnc(-c2cc(C(F)(F)F)cc(C(F)(F)F)c2)n1)N1CC(F)(F)C1 + CCN1C(=O)N(c2c(F)c(OC)cc(OC)c2F)Cc2cnc3[nH]c(CN4CCOCC4)cc3c21 [pemigatinib] | 0.612 |
| CC(C)(C)[N+]([O-])=Cc1ccc(S(=O)(=O)O)cc1S(=O)(=O)O + CCN1C(=O)N(c2c(F)c(OC)cc(OC)c2F)Cc2cnc3[nH]c(CN4CCOCC4)cc3c21 [pemigatinib] | 0.904 |
| C[C@]12CC[C@@H]3c4ccc(OC(=O)c5ccccc5)cc4CC[C@H]3[C@@H]1CC[C@@H]2O [Estradiol Benzoate] + CCN1C(=O)N(c2c(F)c(OC)cc(OC)c2F)Cc2cnc3[nH]c(CN4CCOCC4)cc3c21 [pemigatinib] | 0.928 |
| Cc1ccc(F)c(NC(=O)Nc2ccc(-c3cccc4[nH]nc(N)c34)cc2)c1 [Linifanib (ABT-869)] + CCN1C(=O)N(c2c(F)c(OC)cc(OC)c2F)Cc2cnc3[nH]c(CN4CCOCC4)cc3c21 [pemigatinib] | 0.959 |
| Cc1cccc(CC(=O)N2CCc3c2ccc(-c2cn(C)c4ncnc(N)c24)c3F)n1 + CCN1C(=O)N(c2c(F)c(OC)cc(OC)c2F)Cc2cnc3[nH]c(CN4CCOCC4)cc3c21 [pemigatinib] | 0.949 |
| COc1ccc(-n2c(SCCCN3C(=O)c4cccc5cccc(c45)C3=O)nnc2-c2ccncc2)cc1 + CCN1C(=O)N(c2c(F)c(OC)cc(OC)c2F)Cc2cnc3[nH]c(CN4CCOCC4)cc3c21 [pemigatinib] | 0.799 |
| Cc1c(-c2cnccn2)ssc1=S [Oltipraz] + CCN1C(=O)N(c2c(F)c(OC)cc(OC)c2F)Cc2cnc3[nH]c(CN4CCOCC4)cc3c21 [pemigatinib] | 0.898 |
| CC(C)(CO)C(O)C(=O)NCCC(=O)O [Calcium D-Panthotenate] + CCN1C(=O)N(c2c(F)c(OC)cc(OC)c2F)Cc2cnc3[nH]c(CN4CCOCC4)cc3c21 [pemigatinib] | 1 |
| CCN1CCN(Cc2ccc(C(=O)Nc3ccc(C)c(Oc4ccc5c(c4)CC(=O)N5)c3)cc2C(F)(F)F)CC1 + CCN1C(=O)N(c2c(F)c(OC)cc(OC)c2F)Cc2cnc3[nH]c(CN4CCOCC4)cc3c21 [pemigatinib] | 0.952 |
| N[C@@H](Cc1cc(I)c(Oc2ccc(O)c(I)c2)c(I)c1)C(=O)O [Liothyronine Sodium] + CCN1C(=O)N(c2c(F)c(OC)cc(OC)c2F)Cc2cnc3[nH]c(CN4CCOCC4)cc3c21 [pemigatinib] | 0.984 |
| CN(C)C(=O)[C@H](O)[C@H](Cc1ccccc1)NC(=O)c1cc2cc(Cl)ccc2[nH]1 + CCN1C(=O)N(c2c(F)c(OC)cc(OC)c2F)Cc2cnc3[nH]c(CN4CCOCC4)cc3c21 [pemigatinib] | 0.957 |
| O=C(Oc1cc(S(=O)(=O)c2ccccc2)ccc1[N+](=O)[O-])c1ccc(Cl)cc1 + CCN1C(=O)N(c2c(F)c(OC)cc(OC)c2F)Cc2cnc3[nH]c(CN4CCOCC4)cc3c21 [pemigatinib] | 0.972 |
| COc1ccc(C2CC(=O)c3c(O)cc(OC4OC(COC5OC(C)C(O)C(O)C5O)C(O)C(O)C4O)cc3O2)cc1OC (configuration not stated) [Methyl-Hesperidin] + CCN1C(=O)N(c2c(F)c(OC)cc(OC)c2F)Cc2cnc3[nH]c(CN4CCOCC4)cc3c21 [pemigatinib] | 0.932 |
| Cc1cc(CN2CCN(c3c(Br)cnc4nc(-c5ccc(N6CCN(C)CC6)cc5)[nH]c34)CC2)no1 + CCN1C(=O)N(c2c(F)c(OC)cc(OC)c2F)Cc2cnc3[nH]c(CN4CCOCC4)cc3c21 [pemigatinib] | 0.684 |
| Cc1ccc(=O)n(-c2ccccc2)c1 [Pirfenidone] + CCN1C(=O)N(c2c(F)c(OC)cc(OC)c2F)Cc2cnc3[nH]c(CN4CCOCC4)cc3c21 [pemigatinib] | 0.896 |
| O=C(CCCN1CCN(c2ccccn2)CC1)c1ccc(F)cc1 [Azaperone] + CCN1C(=O)N(c2c(F)c(OC)cc(OC)c2F)Cc2cnc3[nH]c(CN4CCOCC4)cc3c21 [pemigatinib] | 0.96 |

| SMILES | cell viability |
| --- | --- |
| O=C(Nc1ccncc1)c1cc([N+](=O)[O-])ccc1Cl + CCN1C(=O)N(c2c(F)c(OC)cc(OC)c2F)Cc2cnc3[nH]c(CN4CCOCC4)cc3c21 [pemigatinib] | 0.901 |
| C[C@H](CCC(=O)O)[C@H]1CC[C@H]2[C@@H]3[C@@H](O)C[C@@H]4C[C@H](O)CC[C@]4(C)[C@H]3CC[C@]12C [Ursodiol] + CCN1C(=O)N(c2c(F)c(OC)cc(OC)c2F)Cc2cnc3[nH]c(CN4CCOCC4)cc3c21 [pemigatinib] | 0.992 |
| C=CC(=O)N1C/C(=C\c2ccc([N+](=O)[O-])cc2)C(=O)/C(=C/c2ccc([N+](=O)[O-])cc2)C1 + CCN1C(=O)N(c2c(F)c(OC)cc(OC)c2F)Cc2cnc3[nH]c(CN4CCOCC4)cc3c21 [pemigatinib] | 0.245 |
| CNc1nc(Nc2cn(C(C)(C)C#N)nc2C)ncc1C(F)(F)F + CCN1C(=O)N(c2c(F)c(OC)cc(OC)c2F)Cc2cnc3[nH]c(CN4CCOCC4)cc3c21 [pemigatinib] | 0.977 |
| COC(=O)C1=C(C#N)NC(C)=C(C(=O)OC(C)C)C1c1cccc([N+](=O)[O-])c1 (configuration not stated) [Nilvadipine] + CCN1C(=O)N(c2c(F)c(OC)cc(OC)c2F)Cc2cnc3[nH]c(CN4CCOCC4)cc3c21 [pemigatinib] | 0.986 |
| COCCCN1CCC(NC(=O)c2cc(Cl)c(N)c3c2OCC3)CC1 [Prucalopride] + CCN1C(=O)N(c2c(F)c(OC)cc(OC)c2F)Cc2cnc3[nH]c(CN4CCOCC4)cc3c21 [pemigatinib] | 0.9 |
| COCCCN1CCC(NC(=O)c2cc(Cl)c(N)c3c2OCC3)CC1 [Prucalopride Succinat] + CCN1C(=O)N(c2c(F)c(OC)cc(OC)c2F)Cc2cnc3[nH]c(CN4CCOCC4)cc3c21 [pemigatinib] | 0.938 |
| CC[C@@H]1C(=O)OC[C@@H]1Cc1cncn1C [Pilocarpine HCl] + CCN1C(=O)N(c2c(F)c(OC)cc(OC)c2F)Cc2cnc3[nH]c(CN4CCOCC4)cc3c21 [pemigatinib] | 0.967 |
| CN1CCc2c(c3ccccc3n2Cc2ccc(C(=O)NO)cc2)C1 [Tubastatin A] + CCN1C(=O)N(c2c(F)c(OC)cc(OC)c2F)Cc2cnc3[nH]c(CN4CCOCC4)cc3c21 [pemigatinib] | 0.974 |
| CN1CCc2c(c3ccccc3n2Cc2ccc(C(=O)NO)cc2)C1 [Tubastatin A HCl] + CCN1C(=O)N(c2c(F)c(OC)cc(OC)c2F)Cc2cnc3[nH]c(CN4CCOCC4)cc3c21 [pemigatinib] | 0.992 |
| Cc1c(CN2CCN(C(=O)[C@H](C)O)CC2)sc2c(N3CCOCC3)nc(-c3cnc(N)nc3)nc12 + CCN1C(=O)N(c2c(F)c(OC)cc(OC)c2F)Cc2cnc3[nH]c(CN4CCOCC4)cc3c21 [pemigatinib] | 0.611 |
| CC(C)(CO)c1cc2cc(NC(=O)C3(c4ccc5c(c4)OC(F)(F)O5)CC3)c(F)cc2n1C[C@@H](O)CO + CCN1C(=O)N(c2c(F)c(OC)cc(OC)c2F)Cc2cnc3[nH]c(CN4CCOCC4)cc3c21 [pemigatinib] | 0.929 |
| COc1cc2nccc(Oc3ccc(NC(=O)NC4CC4)c(Cl)c3)c2cc1C(N)=O [Lenvatinib (E7080)] + CCN1C(=O)N(c2c(F)c(OC)cc(OC)c2F)Cc2cnc3[nH]c(CN4CCOCC4)cc3c21 [pemigatinib] | 0.963 |
| CCC(C)(Oc1ccc(C2(c3ccc(OC(C)(CC)C(=O)O)cc3)CCCCC2)cc1)C(=O)O (configuration not stated) [Clinofibrate] + CCN1C(=O)N(c2c(F)c(OC)cc(OC)c2F)Cc2cnc3[nH]c(CN4CCOCC4)cc3c21 [pemigatinib] | 1.03 |
| C[C@@H](O[C@H]1OCCN(Cc2nn(P(=O)(O)O)c(=O)[nH]2)[C@H]1c1ccc(F)cc1)c1cc(C(F)(F)F)cc(C(F)(F)F)c1 [Fosaprepitant dimeglumine salt] + CCN1C(=O)N(c2c(F)c(OC)cc(OC)c2F)Cc2cnc3[nH]c(CN4CCOCC4)cc3c21 [pemigatinib] | 0.868 |
| CNc1cc(-c2cccc(Cl)c2Cl)nc(N)n1 + CCN1C(=O)N(c2c(F)c(OC)cc(OC)c2F)Cc2cnc3[nH]c(CN4CCOCC4)cc3c21 [pemigatinib] | 0.748 |
| COc1nc(OCc2cccc(-c3ccccc3)c2C)ccc1CNCCNC(C)=O [PD-1/PD-L1 inhibitor 2] + CCN1C(=O)N(c2c(F)c(OC)cc(OC)c2F)Cc2cnc3[nH]c(CN4CCOCC4)cc3c21 [pemigatinib] | 1 |
| Cc1ncc(-c2ccnc(Nc3ccc(S(C)(=O)=O)cc3)n2)n1C(C)C + CCN1C(=O)N(c2c(F)c(OC)cc(OC)c2F)Cc2cnc3[nH]c(CN4CCOCC4)cc3c21 [pemigatinib] | 1 |
